Cytotoxicity call data for twelve molecules are collected here from the antibiotic and cytotoxicity screens of Wong et al. (2023).

The other results are listed elsewhere or left out.

The subject of this experiment is HSkMC (human skeletal muscle cells). Briefly: cytotoxicity call (relative viability < 0.9). The conditions noted are these: 10 µM.
Turning to `CC(C)[C@@H](N)c1nc2ccccc2[nH]1`, the cytotoxicity call was “inactive”.
On to `CCOC(=O)c1c(CN2CCN(c3ccccc3)CC2)n(-c2ccccc2)c2cc(Br)c(OC)cc12`, for which the cytotoxicity call is “inactive”.
On to `C[C@@H]1CN([C@H](C)CO)C(=O)c2cccc(NC(=O)C3CCCCC3)c2O[C@@H]1CN(C)S(=O)(=O)c1cn(C)cn1`, for which the cytotoxicity call was “inactive”.
In the case of `C[C@@H]1CN([C@H](C)CO)S(=O)(=O)c2ccc(C#C[C@@H](C)O)cc2O[C@@H]1CN(C)C(=O)C1CCCCC1` it was “inactive”; in that of `COc1ccc([C@@H](N)c2ccccc2)cc1`, “inactive”.
As for `CC(C)NC(=O)N(C)C[C@H]1Oc2c(NC(=O)Nc3ccc4c(c3)OCO4)cccc2C(=O)N([C@@H](C)CO)C[C@H]1C`, the cytotoxicity call was “inactive”.
As to `COc1ccccc1C#Cc1ccc2c(c1)O[C@@H](CN(C)Cc1ccncc1)[C@@H](C)CN([C@@H](C)CO)S2(=O)=O`, the cytotoxicity call is “inactive”.
As to `COC(=O)C[C@@H]1CC[C@H]2[C@H](COc3ccc(NS(=O)(=O)c4ccccc4Cl)cc3C(=O)N2C)O1`, the cytotoxicity call is “inactive”.
In the case of `Cc1ccc(S(=O)(=O)Nc2ccc3c(c2)C(=O)N([C@@H](C)CO)C[C@H](C)[C@H](CN(C)C(=O)C2CCCCC2)OCCCC[C@@H](C)O3)cc1` it was “inactive”; in that of `COc1ccc(S(=O)(=O)Nc2ccc3c(c2)CC(=O)N([C@H](C)CO)C[C@H](C)[C@H](CN(C)S(=O)(=O)c2ccc(C)cc2)O3)cc1`, “inactive”.
Turning to `Cc1ccc(S(=O)(=O)N(C)C[C@@H]2Oc3ccc(NC(=O)Cn4cnnn4)cc3CC(=O)N([C@@H](C)CO)C[C@@H]2C)cc1`, the cytotoxicity call was “inactive”.
Turning to `COc1ccc(NC(=O)Nc2ccc3c(c2)C(=O)N([C@@H](C)CO)C[C@@H](C)[C@H](CN(C)Cc2ccccc2)OCCCC[C@@H](C)O3)cc1`, the cytotoxicity call is “inactive”.
